Compound in this test: NC1(c2ccc(-c3nc4ccn5c(=O)[nH]nc5c4cc3-c3ccccc3)cc2)CCC1 [MK-2206]
The test can be described thus: Viability of human cancer cell lines after 72 h of drug (GDSC screen). The method, then: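 Human cancer cell lines in 384-well plates, medium with 10% serum, drug for 72 h over a 256-fold dose range (nine 2-fold or five 4-fold steps up to the top dose). Adherent lines were fixed and stained with the nucleic acid dye Syto60, suspension lines read with resazurin; signal relative to control wells, capped at 0 and 100%. One two-parameter sigmoid per drug and line, fitted in a mixed model over all curves with the slope shared within a line.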

The IC50 comes from the fitted curve, where viability falls to half of the control; a fit beyond the top or the lowest dose is shown as a bound at that dose. AUC sums up the same curve from the lowest dose to the 256-fold higher top dose; values near 1 show little effect.

By IC50 is commonly meant the point on the concentration scale where inhibition reaches its midpoint. “DBTRG-05MG (glioma, adherent, top dose 4 µM)”: the AUC is 0.939 and the IC50 was > 4000 nM.
With “DEL (lymphoid neoplasm, suspension, top dose 4 µM)”, the AUC was 0.994 and the IC50 is > 4000 nM.
Consider “DG-75 (Burkitt lymphoma, suspension, top dose 4 µM)”, for which the AUC came to 0.831 and the half-inhibitory concentration (IC50) amounted to 2570 nM.
For “DIFI (large intestine, adherent, top dose 4 µM)” the same measures were 0.676 and 794 nM.
The corresponding values for DJM-1 (skin, adherent, top dose 4 µM) are 0.947 and > 4000 nM.
DK-MG (glioma, adherent, top dose 4 µM): the AUC was found to be 0.926 and the half-maximal inhibitory concentration (IC50) is > 4000 nM.
The corresponding values for “DMS-79 (small cell lung carcinoma, suspension, top dose 4 µM)” are 0.961 and > 4000 nM.
As to “DMS-114 (small cell lung carcinoma, adherent, top dose 4 µM)”, the AUC stood at 0.813 and the 50% inhibitory concentration (IC50) is 2570 nM.
For “DMS-273 (small cell lung carcinoma, adherent, top dose 4 µM)” the same measures were 0.745 and 1330 nM.
For “DND-41 (T-cell leukaemia, suspension, top dose 4 µM)” the same measures were 0.922 and > 4000 nM.
On to “DOHH-2 (B-cell lymphoma, suspension, top dose 4 µM)”, for which the AUC turned out to be 0.768 and the half-maximal inhibitory concentration (IC50) turned out to be 1470 nM.
For “DOK (head and neck, adherent, top dose 4 µM)” the same measures were 0.624 and 652 nM.
For DOV13 (ovary, adherent, top dose 4 µM) the same measures were 0.856 and > 4000 nM.
The corresponding values for DSH1 (bladder, adherent, top dose 4 µM) are 0.888 and > 4000 nM.
Consider “DU-145 (prostate, adherent, top dose 2 µM)”, for which the AUC was 0.768 and the half-maximal inhibitory concentration (IC50) was determined as 832 nM.
For “DU-4475 (breast, suspension, top dose 4 µM)” the same measures were 0.964 and > 4000 nM.
The corresponding values for “Daudi (Burkitt lymphoma, suspension, top dose 4 µM)” are 0.848 and 2420 nM.
The corresponding values for “Detroit562 (head and neck, adherent, top dose 4 µM)” are 0.94 and > 4000 nM.
Consider “DoTc2-4510 (cervix, adherent, top dose 4 µM)”, for which the AUC worked out at 0.949 and the IC50 is > 4000 nM.
Regarding “EB2 (Burkitt lymphoma, suspension, top dose 4 µM)”, the AUC amounted to 0.99 and the half-maximal inhibitory concentration (IC50) is > 4000 nM.
As for “EB-3 (Burkitt lymphoma, suspension, top dose 4 µM)”, the AUC was determined as 0.984 and the 50% inhibitory concentration (IC50) is > 4000 nM.
The corresponding values for “EBC-1 (lung squamous cell carcinoma, adherent, top dose 4 µM)” are 0.835 and 3110 nM.
The corresponding values for “EC-GI-10 (oesophagus, adherent, top dose 4 µM)” are 0.715 and 1010 nM.
For “ECC10 (stomach, suspension, top dose 4 µM)” the same measures were 0.837 and 2850 nM.
For “EFM-192A (breast, adherent, top dose 4 µM)”, the AUC came out at 0.653 and the IC50 was found to be 700 nM.
The corresponding values for EFO-21 (ovary, adherent, top dose 4 µM) are 0.944 and > 4000 nM.
The corresponding values for EFO-27 (ovary, adherent, top dose 4 µM) are 0.904 and > 4000 nM.
The corresponding values for “EGI-1 (biliary tract, adherent, top dose 2 µM)” are 0.854 and > 2000 nM.
On to “EHEB (lymphoid neoplasm, suspension, top dose 4 µM)”, for which the AUC is 0.706 and the IC50 was 1260 nM.
Take “EJM (lymphoid neoplasm, semi-adherent, top dose 4 µM)”: the AUC worked out at 0.963 and the 50% inhibitory concentration (IC50) was > 4000 nM.
The corresponding values for “EKVX (lung adenocarcinoma, adherent, top dose 4 µM)” are 0.789 and > 4000 nM.
For “EM-2 (chronic myeloid leukaemia, suspension, top dose 4 µM)” the same measures were 0.644 and 662 nM.
The corresponding values for “EMC-BAC-1 (lung adenocarcinoma, adherent, top dose 4 µM)” are 0.886 and > 4000 nM.
For “EMC-BAC-2 (lung adenocarcinoma, adherent, top dose 4 µM)”, the AUC worked out at 0.723 and the IC50 came to 1220 nM.
For “EN (endometrium, adherent, top dose 4 µM)” the same measures were 0.82 and 3140 nM.
The corresponding values for “ES1 (Ewing sarcoma, adherent, top dose 4 µM)” are 0.691 and 850 nM.
For “ES3 (Ewing sarcoma, adherent, top dose 2 µM)” the same measures were 0.821 and 1240 nM.
With “ES4 (Ewing sarcoma, adherent, top dose 4 µM)”, the AUC was 0.932 and the IC50 is > 4000 nM.
For “ES5 (Ewing sarcoma, adherent, top dose 4 µM)” the same measures were 0.647 and 681 nM.
For “ES6 (Ewing sarcoma, adherent, top dose 4 µM)” the same measures were 0.86 and > 4000 nM.
The corresponding values for “ES7 (Ewing sarcoma, adherent, top dose 4 µM)” are 0.929 and > 4000 nM.
“ES8 (Ewing sarcoma, adherent, top dose 4 µM)”: the AUC came out at 0.744 and the concentration for half-maximal inhibition (IC50) worked out at 1170 nM.
The corresponding values for ES-2 (ovary, adherent, top dose 4 µM) are 0.8 and 1670 nM.
The corresponding values for “ESO26 (oesophagus, adherent, top dose 4 µM)” are 0.801 and 1830 nM.
For “ESO51 (oesophagus, semi-adherent, top dose 4 µM)” the same measures were 0.866 and > 4000 nM.
With “ESS-1 (endometrium, adherent, top dose 4 µM)”, the AUC was 0.912 and the concentration for half-maximal inhibition (IC50) is > 4000 nM.
For “ETK-1 (biliary tract, adherent, top dose 4 µM)” the same measures were 0.852 and 3760 nM.
The corresponding values for “EVSA-T (breast, adherent, top dose 4 µM)” are 0.37 and 116 nM.
For “EW-1 (Ewing sarcoma, semi-adherent, top dose 4 µM)” the same measures were 0.921 and > 4000 nM.
Turning to “EW-3 (Ewing sarcoma, adherent, top dose 4 µM)”, the AUC came to 0.827 and the IC50 was determined as 2920 nM.
Take “EW-7 (Ewing sarcoma, semi-adherent, top dose 4 µM)”: the AUC turned out to be 0.941 and the concentration for half-maximal inhibition (IC50) was > 4000 nM.
The corresponding values for “EW-11 (Ewing sarcoma, adherent, top dose 4 µM)” are 0.836 and 3830 nM.
The corresponding values for “EW-13 (Ewing sarcoma, suspension, top dose 4 µM)” are 0.944 and > 4000 nM.
For “EW-16 (Ewing sarcoma, adherent, top dose 4 µM)” the same measures were 0.762 and 1490 nM.
On to “EW-18 (Ewing sarcoma, suspension, top dose 4 µM)”, for which the AUC amounted to 0.658 and the IC50 was 710 nM.
Take “EW-22 (Ewing sarcoma, adherent, top dose 4 µM)”: the AUC was found to be 0.864 and the half-maximal inhibitory concentration (IC50) came to 3260 nM.
For “EW-24 (Ewing sarcoma, semi-adherent, top dose 4 µM)” the same measures were 0.992 and > 4000 nM.
The corresponding values for “EoL-1-cell (haematopoietic neoplasm, suspension, top dose 4 µM)” are 0.919 and > 4000 nM.
The corresponding values for “FADU (head and neck, adherent, top dose 4 µM)” are 0.917 and > 4000 nM.
For “FLO-1 (oesophagus, adherent, top dose 4 µM)”, the AUC stood at 0.657 and the 50% inhibitory concentration (IC50) is 835 nM.
The corresponding values for “FTC-133 (thyroid, adherent, top dose 4 µM)” are 0.93 and > 4000 nM.
The corresponding values for FU97 (stomach, adherent, top dose 4 µM) are 0.593 and 453 nM.
The corresponding values for “FU-OV-1 (ovary, adherent, top dose 4 µM)” are 0.913 and > 4000 nM.
Regarding “Farage (B-cell lymphoma, suspension, top dose 4 µM)”, the AUC worked out at 0.629 and the IC50 is 528 nM.
As for “G-292 Clone A141B1 (osteosarcoma, adherent, top dose 4 µM)”, the AUC was determined as 0.96 and the 50% inhibitory concentration (IC50) is > 4000 nM.
For “G-361 (melanoma, adherent, top dose 4 µM)” the same measures were 0.908 and > 4000 nM.
For G-401 (kidney, adherent, top dose 4 µM) the same measures were 0.702 and 984 nM.
For “G-402 (soft tissue, adherent, top dose 4 µM)” the same measures were 0.763 and 1920 nM.

(Values after the supplement of paper PMC4967469.)
